# Measurements published in PubChem BioAssay AID504832 (National Center for Advancing Translational Sciences (NCATS), 2011).
# Hit rate of the full screen: of about 310,000 compounds, about 18,000 (5.8%) were called active. The inconclusive results got no clear call from the source; some entries with a clear call stand among them for comparison. Calls follow the shape of the dose curve; as a rule, active = well fitted inhibition curve with a large enough effect; inconclusive = small, poorly fitted or top-dose-only effect, or another doubt; inactive = no such curve, though single readings can be large or run the other way. Potencies of inconclusive entries are left out as doubtful fits.
# Assay: Primary qHTS for delayed death inhibitors of the malarial parasite plastid, 48 hour incubation
# Conditions: P. falciparum luciferase growth in erythrocytes; series mostly up to 28.7 µM
# Excerpt: The goal of this screen is to discover new antimalarial compounds that act by inhibiting the development of the apicoplast in the malarial parasite Plasmodium falciparum. The biochemical processes that make this organelle essential for erythrocytic stage parasites are not well understood. However, antibiotics such as azithromycin and tetracycline, which target the apicoplast translational machinery, have a potent antimalarial effect.
# We have developed a cell-based assay that measures parasite growth based on the expression of an integrated copy of a firefly luciferase reporter. To detect small molecules that cause this "delayed death" phenotype, erythrocytes infected with the luciferase-expressing parasites were incubated with compounds for either one or two generations, corresponding to 48 and 96 hours, respectively. Compounds that inhibit parasite growth in the second generation, but not the first, should be enriched in antimalarials that target the apicoplast. Growth inhibition is detected by a decrease in luciferase activity.
# Assay Provider: David Fidock and Eric Ekland, Columbia University
# Keywords: NIH Roadmap, MLPCN, MLI, MLSMR, qHTS, NCGC, qHTS, malaria, luciferase, viability
# Four microliters of culture medium (RPMI 1640 with 0.5% w/v Albumax (GIBCO), 24 mM sodium bicarbonate and 10 ug/mL gentamycin) were dispensed by a Multi-drop Combi into white solid 1536-well plates (Grenier) and 23 nL compound was added by a pin tool. Four microliters of infected erythrocytes (2% hematocrit, 0.1% parasitemia final concentration) in culture medium were dispensed and the plates incubated for 48 hours at 37 C in 5% CO2. Two microliters of luciferase detection reagent was added and luminescence was detected by a ViewLux (PerkinElmer) reader.
# Potency is read from the fitted curve at half-maximal effect; tags tell the direction and shape of the fitted curve.
row,SMILES,Potency
1,Cc1ccc(S(=O)(=O)Nc2n[nH]nc2C(=O)NC2CCCCC2)cc1,inactive
2,CN(C)/C=C/C(=O)c1ccn(S(=O)(=O)c2ccccc2)c1,"inconclusive [inhibitor, partial curve, poor fit]"
3,Cc1nc(=O)c(-c2ccccc2)c(C)n1-c1cccc(C(=O)O)c1,inactive
4,O=C(CCc1nc2cccnc2n1Cc1ccccc1)NCCc1ccc(Cl)cc1,"inconclusive [inhibitor, single point]"
5,COc1cc2nc(SCc3ccc(C(F)(F)F)cc3)n(Cc3cccs3)c(=N)c2cc1OC,"inconclusive [inhibitor, single point]"
6,COc1ccccc1OCCOc1ccc(C(=O)c2ccccc2)cc1,inactive
7,O=C(Nc1ccc2nc3n(c(=O)c2c1)CCCC3)c1ccccc1[N+](=O)[O-],inactive
8,COc1ccc(NC(=O)Nc2nnc(Cc3ccc(F)cc3)s2)cc1,"inconclusive [inhibitor, partial curve]"
9,CN1CCN(c2ccc(S(=O)(=O)N3CCCCC3)cc2NC(=O)Cc2ccccc2F)CC1,"inconclusive [inhibitor, partial curve, poor fit]"
10,CCOc1ccc(OCC)c(NC(=O)C2CCCN(c3nc(C)cc(C)n3)C2)c1 (stereo unspecified),"inconclusive [inhibitor, single point]"
11,NC(=O)C1CCN(c2nc(-c3ccccc3-c3ccccc3)cs2)CC1,"inconclusive [inhibitor, partial curve]"
12,CN1C(=O)C(=Cc2ccccc2Oc2ccc(Cl)c(F)c2)C(=O)N(C)C1=O,"inconclusive [inhibitor, single point]"
13,COc1ccccc1CC(=O)NCc1nn(-c2ccccc2)nc1C,inactive
14,CCOC(=O)c1ccc2[nH]c3ccccc3c2c1,"inconclusive [inhibitor, partial curve, poor fit]"
15,COC(=O)c1cc(COc2ccc3ccc(=O)oc3c2)c(C)o1,inactive
16,O=[N+]([O-])c1ccc(N2CCCCCC2)c(S(=O)(=O)N2CCCCC2)c1,"inconclusive [inhibitor, partial curve]"
17,CCCCSC(=S)NC1CCS(=O)(=O)C1 (stereo unspecified),"inconclusive [inhibitor, single point]"
18,Clc1nc(NCCN2CCOCC2)nc(NCc2ccccc2)n1,"inconclusive [inhibitor, single point]"
19,CC1CCC(C(C)C)C(OC(=O)COC(=O)c2cc(O)ccc2N)C1 (stereo unspecified),inactive
20,Nc1ccc(N2CCN(C(=O)c3ccco3)CC2)cc1,"inconclusive [inhibitor, single point]"
21,O=C(Nc1ccccc1)Nc1ccc(S(=O)(=O)N2CCCCC2)cc1,"inconclusive [inhibitor, partial curve]"
22,c1ccc(CNc2ncnc3sc4c(c23)CCC4)nc1,inactive
23,Cn1nnnc1SCCNC(=O)C1CCC(=O)N(CCc2cccc(F)c2)C1 (stereo unspecified),inactive

row,SMILES,Potency
1,CCn1ncc(CNC(=O)CCCSc2nc(-c3ccco3)cc(C(F)(F)F)n2)c1C,active: 11.7 µM
2,CCn1cc(S(=O)(=O)c2ccc(C)cc2)c(=O)c2cc(F)c(N3CCN(C)CC3)cc21,"inconclusive [inhibitor, partial curve, poor fit]"
3,COC(=O)c1sccc1NC(=O)CN(C)NS(=O)(=O)c1ccc(Cl)cc1,"inconclusive [inhibitor, single point]"
4,CC1Cc2ccccc2N1Cc1nc2scc(-c3cccs3)c2c(=O)[nH]1 (stereo unspecified),"inconclusive [inhibitor, full curve, poor fit]"
5,COc1ccc(-c2nnc(OCc3nc4ccccc4n3C)c3ccccc23)cc1,"inconclusive [inhibitor, single point]"
6,CN(CC(=O)Nc1ccc(F)cc1)C(=O)COC(=O)CN1C(=O)NC2(CCCC2)C1=O,"inconclusive [inhibitor, single point]"
7,CC1CCN(C(=O)c2[nH]cnc2C(=O)N[C@@H](CCCCNC(=O)OC(C)(C)C)C(=O)OC(C)(C)C)CC1,"inconclusive [inhibitor, partial curve]"
8,COc1ccc(N2CCN(Cc3cc(=O)oc4cc(C)c(Cl)c(C)c34)CC2)cc1,active: 4.15 µM
9,Cc1ccc(C)c2[nH]c(=O)c(CN(CC3CCCO3)C(=O)NC3CCCCC3)cc12 (stereo unspecified),inactive
10,Cc1ccc(-c2nc(SCC(=O)Nc3cc(C)on3)c3c(=O)n(C)c(=O)n(C)c3n2)cc1,inactive
11,CC(C)c1cccc(C(C)C)c1NC(=O)COC(=O)c1ccc(OCC(=O)Nc2cccc(C(F)(F)F)c2)cc1,"inconclusive [inhibitor, single point]"
12,COc1ccc(C(=O)C[n+]2ccc3c(c2)nc(-c2cc(OC)c(OC)cc2OC)n3C)cc1,active: 3.29 µM
13,CCn1cc(C(=O)N[C@H](C(=O)NCCCn2ccnc2)C(C)C)c(=O)c2cc3c(cc21)OCO3,inactive
14,O=C(Nc1cccc(S(=O)(=O)N2CCOCC2)c1)c1cnccn1,inactive
15,COc1ccc(Nc2nc(C)c(-c3ccccc3)s2)cc1,inactive
16,Oc1ccccc1-c1cc(C(F)(F)F)[nH]n1,"inconclusive [inhibitor, single point]"
17,Cc1ccc(N=CC=C2OC(C)(C)C(C)(C)O2)c(C)c1,"inconclusive [inhibitor, single point]"
18,Cc1sc2c(c1C)C(O)=C(C(=O)Nc1ccccc1)S(=O)(=O)N2C,inactive
19,Nn1c(SCC(=O)Nc2nccs2)nnc1-c1ccco1,inactive
20,CCCCn1c(N)c(N(CC(C)C)C(=O)CN(C)S(=O)(=O)c2ccc(F)cc2)c(=O)[nH]c1=O,inactive
21,Cc1cccc(C(=O)NC(NC(=S)Nc2ccc(S(N)(=O)=O)cc2)C(Cl)(Cl)Cl)c1 (stereo unspecified),"inconclusive [inhibitor, partial curve, poor fit]"
22,Cc1ccccc1N=Nc1ccc(O)c2ncccc12,active: 0.37 µM
23,Cc1cccc(NC2CCCCC2NS(=O)(=O)c2ccccc2)c1 (stereo unspecified),"inconclusive [inhibitor, single point]"
